The subject of assay [1] is HSkMC (human skeletal muscle cells). The assay can be described thus: cytotoxicity call (relative viability < 0.9). To be noted: 10 µM.
For assay [2], the system named is HepG2. Description: cytotoxicity call (relative viability < 0.9). To be noted: 10 µM.
Assay [3] deals with S. aureus RN4220. Description: growth inhibition call (relative growth <= 0.2). To be noted: 50 µM.

Experimental findings from the antibiotic and cytotoxicity screens of Wong et al. (2023) are described below.

This is one part of the list.

On to `C=CCNc1ncnc2c1cnn2C`, for which the cytotoxicity call in assay [1] and in assay [2] was “inactive” in each case. Besides, the growth inhibition call in assay [3] was “inactive”.
Turning to `CCOC(=O)c1cn2cn[nH]c2nc1=O`, the cytotoxicity call in assay [1] and in assay [2] was “inactive” each time. Besides, the growth inhibition call in assay [3] was “inactive”.
In the case of `C[C@@H]1CN([C@@H](C)CO)C(=O)c2cc(Br)cnc2O[C@@H]1CN(C)S(=O)(=O)c1ccc(F)cc1`, the cytotoxicity call in assay [1] and in assay [2] was “inactive” each time. In addition, the growth inhibition call in assay [3] was “inactive”.
Take `CC(=O)OC[C@H]1O[C@H](n2ccc(=O)[nH]c2=O)[C@@H](OC(C)=O)[C@@H]1OC(C)=O`: the cytotoxicity call in assay [1] and in assay [2] was “inactive” each time. The growth inhibition call in assay [3] was “inactive”.
Take `C=CCC[C@@H](Cc1ccc(F)cc1)C(=O)O[C@H](CNC(=O)[C@H](CC=C)CC(=O)N(CCO)Cc1ccccc1)c1ccccc1`: the cytotoxicity call in assay [1] and in assay [2] was “inactive” throughout. Further, in assay [3], the growth inhibition call is “inactive”.
As for `C[C@@H]1CN([C@H](C)CO)C(=O)c2cc(NC(=O)Nc3cccc4ccccc34)ccc2O[C@@H](C)CCCCO[C@H]1CN(C)Cc1ccccc1`, in assay [1], the cytotoxicity call is “inactive”. For the same compound, in assay [2], the cytotoxicity call was “active”. For the same compound, the growth inhibition call in assay [3] is “inactive”.
As for `CC/C(=C\C(=O)O)c1ccccc1`, the cytotoxicity call in assay [1] and in assay [2] was “inactive” throughout. Further, the growth inhibition call in assay [3] was “inactive”.
With `OC[C@H]1O[C@H](O[C@H]2[C@H](O)[C@@H](O)[C@H](O)O[C@@H]2CO)[C@H](O)[C@@H](O)[C@@H]1O`, the cytotoxicity call in assay [1] and in assay [2] was “inactive” each time. For the same compound, in assay [3], the growth inhibition call is “inactive”.
As for `CN(C(=O)C(Cl)Cl)c1ccc(OC(=O)c2ccco2)cc1`, the cytotoxicity call in assay [1] and in assay [2] was “inactive” in each case. For the same compound, the growth inhibition call in assay [3] was “inactive”.
As for `C[C@H](CO)N1C[C@H](C)[C@H](CN(C)CC2CCCCC2)Oc2c(NC(=O)CCCCCC(=O)Nc3ccccc3N)cccc2C1=O`, the cytotoxicity call in assay [1] and in assay [2] was “inactive” throughout. Also, the growth inhibition call in assay [3] is “inactive”.
For `COCCNC(=O)C[C@H]1C[C@@H]2c3cc(NC(=O)COC)ccc3O[C@@H]2[C@@H](CO)O1`, the cytotoxicity call in assay [1] and in assay [2] was “inactive” in each case. Besides, the growth inhibition call in assay [3] is “inactive”.
For the compound `C[C@H](CO)N1C[C@H](C)[C@@H](CN(C)S(=O)(=O)c2ccc(F)cc2)Oc2cc(C#Cc3ccncc3)ccc2S1(=O)=O`, the cytotoxicity call in assay [1] and in assay [2] was “inactive” in each case. In addition, the growth inhibition call in assay [3] was “inactive”.
In the case of `Cc1ccc(S(=O)(=O)N(C)C[C@H]2OCCCC[C@H](C)Oc3ccc(NC(=O)c4ccccc4)cc3C(=O)N([C@H](C)CO)C[C@@H]2C)cc1`, the cytotoxicity call in assay [1] and in assay [2] was “inactive” in each case. In assay [3], the growth inhibition call was “inactive”.
Regarding `COc1ccccc1CNC(=O)C[C@@H]1C[C@H]2c3cc(NC(=O)c4cccnc4)ccc3O[C@H]2[C@H](CO)O1`, the cytotoxicity call in assay [1] and in assay [2] was “inactive” each time. For the same compound, in assay [3], the growth inhibition call was “inactive”.
Regarding `COc1c2occc2c(OC)c2c(=O)cc(C)oc12`, in assay [1], the cytotoxicity call was “inactive”. For the same compound, the cytotoxicity call in assay [2] is “active”. Moreover, the growth inhibition call in assay [3] was “inactive”.
As for `C[C@H](CO)N1C[C@H](C)[C@H](CN(C)Cc2ccc(C(=O)Nc3ccccc3N)cc2)Oc2ccc(NS(C)(=O)=O)cc2CC1=O`, the cytotoxicity call in assay [1] and in assay [2] was “inactive” in each case. Further, the growth inhibition call in assay [3] was “inactive”.
Turning to `O=C(CCCCCC(=O)N/N=C/[C@@H](O)[C@H](O)[C@H](O)CO)NO`, the cytotoxicity call in assay [1] and in assay [2] was “inactive” throughout. The growth inhibition call in assay [3] was “inactive”.
With `OCC1OC(OCC2OC(O)C(O)C(O)C2O)C(O)C(O)C1O` (centres undefined), the cytotoxicity call in assay [1] and in assay [2] was “inactive” in each case. The growth inhibition call in assay [3] was “inactive”.
For `Cc1noc(C)c1NC(=O)N(C)C[C@@H]1Oc2ccc(NS(=O)(=O)c3c(C)noc3C)cc2CC(=O)N([C@@H](C)CO)C[C@@H]1C`, the cytotoxicity call in assay [1] and in assay [2] was “inactive” each time. Further, in assay [3], the growth inhibition call was “inactive”.
For the compound `C[C@H](CO)N1C[C@H](C)[C@H](CN(C)C(=O)Nc2ccc(C(F)(F)F)cc2)Oc2ccc(NC(=O)Cn3cnnn3)cc2CC1=O`, the cytotoxicity call in assay [1] and in assay [2] was “inactive” each time. For the same compound, the growth inhibition call in assay [3] was “inactive”.
In the case of `C[C@H]1CN([C@@H](C)CO)C(=O)c2cccc(NS(=O)(=O)c3cccs3)c2O[C@H]1CN(C)S(=O)(=O)c1cccs1`, the cytotoxicity call in assay [1] and in assay [2] was “inactive” in each case. Besides, the growth inhibition call in assay [3] is “inactive”.
Turning to `C[C@@H]1CCCCO[C@@H](CN(C)C(=O)Nc2ccccc2)[C@H](C)CN([C@@H](C)CO)C(=O)c2cc(NC(=O)CCC(F)(F)F)ccc2O1`, the cytotoxicity call in assay [1] and in assay [2] was “inactive” each time. Besides, the growth inhibition call in assay [3] was “inactive”.
Turning to `Cc1ccc(S(=O)(=O)Nc2ccc3c(c2)C(=O)N([C@@H](C)CO)C[C@H](C)[C@@H](CN(C)S(C)(=O)=O)OCCCC[C@H](C)O3)cc1`, the cytotoxicity call in assay [1] and in assay [2] was “inactive” each time. For the same compound, the growth inhibition call in assay [3] was “inactive”.
Regarding `C[C@@H]1CN([C@H](C)CO)C(=O)c2cccc(NC(=O)C3CC3)c2O[C@H]1CN(C)S(=O)(=O)c1ccc(F)cc1`, the cytotoxicity call in assay [1] and in assay [2] was “inactive” in each case. Also, in assay [3], the growth inhibition call is “inactive”.
Regarding `Cc1noc(C)c1NC(=O)Nc1ccc2c(c1)C(=O)N([C@@H](C)CO)C[C@@H](C)[C@H](CN(C)Cc1ccccc1)OCCCC[C@@H](C)O2`, the cytotoxicity call in assay [1] and in assay [2] was “inactive” throughout. Also, the growth inhibition call in assay [3] was “inactive”.
Consider `Oc1c(Br)cc(Br)c2cccnc12`, for which the cytotoxicity call in assay [1] is “inactive”. Also, in assay [2], the cytotoxicity call was “active”. Also, the growth inhibition call in assay [3] was “inactive”.
For the compound `COC1C(OC(N)=O)C(O)C(Oc2ccc3c([O-])c(NC(=O)c4ccc(O)c(CC=C(C)C)c4)c(=O)oc3c2C)OC1(C)C.[Na+]` (centres undefined), the cytotoxicity call in assay [1] and in assay [2] was “inactive” each time. Moreover, in assay [3], the growth inhibition call is “active”.
For the compound `C[C@H]1CCCCO[C@@H](CN(C)C(=O)Nc2ccc(C(F)(F)F)cc2)[C@@H](C)CN([C@@H](C)CO)C(=O)c2cc(NS(=O)(=O)c3cn(C)cn3)ccc2O1`, the cytotoxicity call in assay [1] and in assay [2] was “inactive” throughout. For the same compound, in assay [3], the growth inhibition call was “inactive”.
